{"source": "the supplement of paper PMC11417369", "note": "± gives the standard deviation of the averaged measurements. The list shows a part of the results."}
{"tested_on": "PfAP2-I AP2 domain 3 (GST-tagged)", "assay": "gcPBM binding intensity (ln(normalized median fluorescence intensity)); higher = stronger DNA binding", "in_short": "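Binding of GST-tagged P. falciparum DNA-binding domains, expressed in E. coli and used at about 25 μg on average, was carried out for 1 h in 1× PBS containing 1% milk, 0.2 mg/ml BSA, 0.5% salmon testes DNA and 0.03% Triton X-100. The target was an Agilent 4 × 180k array of primer-extended double-stranded 36-bp intergenic genomic probes plus negative controls, read with Alexa488 anti-GST antibody at 488 nm. Binding intensity is the highest Masliner-normalised natural-log median intensity across replicate spots of either probe orientation.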"}
{"sequence": "ACCAATTTGACAAACTGTACAAAAAAAATATTAAAA [XGTACX_site1186]", "gcPBM binding intensity (ln)": "7.67 ± 0.49"}
{"sequence": "TACACAAAAATAAACACACACACATATATATATATA [CACACA_site1000]", "gcPBM binding intensity (ln)": "9.45 ± 0.47"}
{"sequence": "TATATATTCCTCCATAGTACAATAATAAAGATAAAA [XGTACX_site5785]", "gcPBM binding intensity (ln)": "7.93 ± 0.35"}
{"sequence": "TTTATTTAAAATAAGTGTACTAGAAAAATTAAGCAG [XGTACX_site4982]", "gcPBM binding intensity (ln)": "8.55 ± 0.16"}
{"sequence": "ATTCCTCATTAATATTCTTATTTTTTAATTCACATT [XGTACX_negctrl_site329]", "gcPBM binding intensity (ln)": "8.04 ± 0.54"}
{"sequence": "TAAAAGGAGACATATACACACATATATATATATATA [CACACA_site5539]", "gcPBM binding intensity (ln)": "9.16 ± 0.18"}
{"sequence": "TGTGATTATGATAAAAGTACAGAAATAAATATACTA [XGTACX_site38]", "gcPBM binding intensity (ln)": "7.92 ± 0.3"}
{"sequence": "TTTTATAAAGAACACAGACACACAAAGAAAGAACCA [CACACA_site4174]", "gcPBM binding intensity (ln)": "8.2 ± 0.45"}
{"sequence": "ATAAAAAGCTAAAAAGTGCAAAAAGTAAATATTTAA", "gcPBM binding intensity (ln)": "10.2 ± 0.12"}
{"sequence": "TATATATACTTAGAAACACACAAAAATATTTTATAA [CACACA_site2578]", "gcPBM binding intensity (ln)": "7.67 ± 0.4"}
{"sequence": "TAATTAGTTTTTACTTTTTTTTTTTTTTTTCTATAT [CACACA_negctrl_site1024]", "gcPBM binding intensity (ln)": "7.24 ± 0.5"}
{"sequence": "TTATGTATATTATAAATTAATACCTTTAAATTAATA [CACACA_negctrl_site67]", "gcPBM binding intensity (ln)": "7.33 ± 0.38"}
{"sequence": "ATAATCCTGAAACACACACACACACCCATAAATAAA [CACACA_site481]", "gcPBM binding intensity (ln)": "8.04 ± 0.25"}
{"sequence": "TATAACTTATTTTTTAGTACATATTATAGTTCATTT [XGTACX_site8649]", "gcPBM binding intensity (ln)": "7.79 ± 0.29"}
{"sequence": "TTTATTTATATAATTACACACATATATACTCAAATG [CACACA_site5543]", "gcPBM binding intensity (ln)": "7.63 ± 0.47"}
{"sequence": "ATATGTACTATACGCACACACACTCACATATTTATA [CACACA_site7510]", "gcPBM binding intensity (ln)": "9.08 ± 0.31"}
{"sequence": "ATAGGGTTTCTACTTTAACATTTTTGAAATATTATA [GTGCAC_negctrl_site260]", "gcPBM binding intensity (ln)": "7.84 ± 0.37"}
{"sequence": "TTCTTAATTCATACCATCAAAACATTTATTCATATC [CACACA_negctrl_site43]", "gcPBM binding intensity (ln)": "7.64 ± 0.63"}
{"sequence": "TATTATAAATAAATAGAAAAAAAAATGATAAATGGA [CACACA_negctrl_site865]", "gcPBM binding intensity (ln)": "7.8 ± 0.65"}
{"sequence": "ATAATAAATACACTAGTGCAAAATAATATATGTACT [GTGCAC_site9707]", "gcPBM binding intensity (ln)": "10.4 ± 0.22"}
{"sequence": "ATATACAGAAAAAATTAAAATAAATATGCAAAACAA [CACACA_negctrl_site704]", "gcPBM binding intensity (ln)": "8.57 ± 0.52"}
{"sequence": "AATATACGATTGTCATTCATACATTGTTAACATAGT [CACACA_negctrl_site1151]", "gcPBM binding intensity (ln)": "7.54 ± 0.59"}
{"sequence": "TACAATGAACATGAAACACACAAAAAAAAAAAAAAA [CACACA_site1544]", "gcPBM binding intensity (ln)": "8 ± 0.47"}
{"sequence": "ACATAGTAAATATTATGTACATAATATATACATTTA [XGTACX_site7500]", "gcPBM binding intensity (ln)": "7.57 ± 0.55"}
{"sequence": "TAAAAATGATCAAAGGGTACAGTATTAATTAAAAAA [XGTACX_site1079]", "gcPBM binding intensity (ln)": "7.74 ± 0.73"}
{"sequence": "TTTACTTTTTTTATATATTATTTATTATATAATATA [CACACA_negctrl_site211]", "gcPBM binding intensity (ln)": "7.61 ± 0.34"}
{"sequence": "TACATATATATAATATATATATCATCATATTTTCTT [XGTACX_negctrl_site478]", "gcPBM binding intensity (ln)": "7.36 ± 0.37"}
{"sequence": "CTTAAACTTTTAAATACACACATACAGACATACACA [CACACA_site6401]", "gcPBM binding intensity (ln)": "8.055 ± 0.021"}
{"sequence": "TTTATATTTCATTTGTTATTTTTCTTGGTTCTATAT [TGCATGCA_negctrl_site23]", "gcPBM binding intensity (ln)": "7.78 ± 0.56"}
{"sequence": "TTTTTTTTTTTTTTTTTTATATTTCATAATTTCATT [XGTACX_negctrl_site579]", "gcPBM binding intensity (ln)": "8.27 ± 0.6"}
{"sequence": "TTTTGCCTGAACAATGCATGTTATTTTTATTTTTTT [TGCATGCA_site673]", "gcPBM binding intensity (ln)": "7.74 ± 1"}
{"sequence": "TCATTTAAGTCATATTGAAATATGCATTATTCAAAA [CACACA_negctrl_site958]", "gcPBM binding intensity (ln)": "7.56 ± 0.55"}
{"sequence": "AAATGTGTTAATGTGCGTACACATATATATAATATT [XGTACX_site2792]", "gcPBM binding intensity (ln)": "8.21 ± 0.35"}
{"sequence": "ATCACTAATTTTTTTACACACCACAATTTAATTTTT [CACACA_site1186]", "gcPBM binding intensity (ln)": "8.34 ± 0.38"}
{"sequence": "AATATATACACATGCGCACACACAAGTGGGAAATTT [CACACA_site8527]", "gcPBM binding intensity (ln)": "8.31 ± 0.47"}
{"sequence": "AATGAAAAGAAATAATAAATAAATGATGACCAGCTG [GTGCAC_negctrl_site398]", "gcPBM binding intensity (ln)": "7.62 ± 0.69"}
{"sequence": "TGATTATCCTTCAGGAGTACATATAATATAATATAT [XGTACX_site1479]", "gcPBM binding intensity (ln)": "8.045 ± 0.035"}
{"sequence": "TTATAAAGAAAAAATTGCTTTAAAAGAAAGATTACA [CACACA_negctrl_site960]", "gcPBM binding intensity (ln)": "7.53 ± 0.58"}
{"sequence": "AAAAACAAAATTTGGAGTACAGTTATAATATTATTA [XGTACX_site5245]", "gcPBM binding intensity (ln)": "8 ± 0.24"}
{"sequence": "ATATATATATGAATCACACACAAAAAATATAGAGAT [CACACA_site3913]", "gcPBM binding intensity (ln)": "8.935 ± 0.007"}
{"sequence": "TAATGTATTATTTAATGTACTTAAAAAATAAATAAA [XGTACX_site3296]", "gcPBM binding intensity (ln)": "7.77 ± 0.014"}
{"sequence": "AATGAACAGACGAGCACACACACACCCATATATATA [CACACA_site1018]", "gcPBM binding intensity (ln)": "8.21 ± 0.73"}
{"sequence": "ACCTTTAATAAATACACACACATAAAAAAAATATAT [CACACA_site5086]", "gcPBM binding intensity (ln)": "8.34 ± 0.2"}
{"sequence": "GGGGAGCTATCTCCTGCACACACAATTTTTTTTTTT [CACACA_site8703]", "gcPBM binding intensity (ln)": "8.8 ± 0.69"}
